The source of these data is paper PMC4336329 (PLoS ONE, 2015).

Structures are written as SMILES. Hit rate of the full screen: of about 310,000 compounds, about 14,000 (4.5%) showed an effect of 50% or more. Effects have a minus sign here. The list shows a part of the results.
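Note: peak tail current of the secondary pulse compared with the same well before compound.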

human ether-à-go-go-related gene (hERG) potassium channel, sequence (Q12809 whole entry, looked up): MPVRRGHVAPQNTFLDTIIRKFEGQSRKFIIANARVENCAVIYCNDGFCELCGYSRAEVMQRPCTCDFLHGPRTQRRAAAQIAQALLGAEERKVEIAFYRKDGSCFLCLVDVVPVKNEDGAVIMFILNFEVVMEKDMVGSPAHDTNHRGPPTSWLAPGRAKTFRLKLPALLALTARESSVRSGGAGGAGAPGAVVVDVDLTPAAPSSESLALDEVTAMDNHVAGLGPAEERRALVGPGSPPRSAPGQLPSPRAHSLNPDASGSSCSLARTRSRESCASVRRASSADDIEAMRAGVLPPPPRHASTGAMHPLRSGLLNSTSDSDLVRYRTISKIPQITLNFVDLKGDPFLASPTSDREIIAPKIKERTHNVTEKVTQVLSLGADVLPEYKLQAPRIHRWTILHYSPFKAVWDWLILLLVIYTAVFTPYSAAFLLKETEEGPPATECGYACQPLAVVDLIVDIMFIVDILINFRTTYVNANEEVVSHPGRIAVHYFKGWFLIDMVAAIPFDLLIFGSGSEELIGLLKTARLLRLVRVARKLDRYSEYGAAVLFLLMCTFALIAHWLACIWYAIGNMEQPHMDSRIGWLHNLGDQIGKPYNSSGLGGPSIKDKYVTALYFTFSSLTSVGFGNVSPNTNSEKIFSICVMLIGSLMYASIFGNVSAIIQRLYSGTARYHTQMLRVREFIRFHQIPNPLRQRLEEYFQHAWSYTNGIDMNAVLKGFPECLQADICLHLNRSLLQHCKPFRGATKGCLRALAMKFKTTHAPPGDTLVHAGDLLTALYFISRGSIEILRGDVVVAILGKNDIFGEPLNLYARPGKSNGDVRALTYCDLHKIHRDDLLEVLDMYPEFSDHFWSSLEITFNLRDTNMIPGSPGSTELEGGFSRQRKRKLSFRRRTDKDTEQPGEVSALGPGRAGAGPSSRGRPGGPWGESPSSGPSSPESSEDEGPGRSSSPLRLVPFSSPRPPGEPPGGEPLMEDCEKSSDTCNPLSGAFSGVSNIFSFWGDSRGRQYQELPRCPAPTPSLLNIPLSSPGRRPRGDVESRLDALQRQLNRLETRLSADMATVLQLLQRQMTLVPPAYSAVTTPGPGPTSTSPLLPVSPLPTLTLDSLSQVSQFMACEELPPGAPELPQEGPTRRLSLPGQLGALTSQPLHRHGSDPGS

This assay addresses human ether-à-go-go-related gene (hERG) potassium channel (human, UniProt Q12809). Put plainly: primary screen, population patch clamp on CHO cells stably expressing hERG.
`CSCC[C@H](NC(=O)C(C)Oc1ccc(Cl)cc1)c1nc2ccccc2[nH]1` (stereo partly shown): the “hERG current change (%, negative = inhibition) at 10uM” value is listed as -7.16%.
For `O=C(Cc1cccs1)Nc1nc(-c2cccnc2)cs1`, the “hERG current change (%, negative = inhibition) at 10uM” value is -3.68%.
Turning to `CCCn1nc(NC(=O)c2ccccn2)c2cc3cc(C)ccc3nc21`, the “hERG current change (%, negative = inhibition) at 10uM” value is -21%.
In the case of `O=C(CCc1nc2ccccc2[nH]c1=O)N/N=C/c1ccccc1`, the “hERG current change (%, negative = inhibition) at 10uM” value was -0.633%.
For `COc1cc(/C=C(\C#N)C(=O)NCC2CCCO2)cc(OC)c1OC` (stereo not shown), the “hERG current change (%, negative = inhibition) at 10uM” value is reported as 0.582%.
With `O=C(CO)N/N=C/c1ccc(Cl)cc1` the figure was 19.8%.
For `O=C(O)Cc1ccc2c(c1)N(S(=O)(=O)c1cccs1)CC(C(=O)O)O2` (stereo not shown), the “hERG current change (%, negative = inhibition) at 10uM” value was determined as 22.7%.
Turning to `COc1ccc(CNc2ccc3cn[nH]c3c2)c(OC)c1OC`, the “hERG current change (%, negative = inhibition) at 10uM” value is -6.79%.
With `COC(=O)CSc1nc(N)c(C#N)c(-c2ccc(O)cc2)c1C#N` the figure was -2.55%; with `Cc1ccc(N2C(=O)CC(Nc3ccccc3)C2=O)cc1` (stereo not shown), 5.66%; with `CCCCc1ccc(N2C(=NC(=O)C3CCCO3)SC3CS(=O)(=O)CC32)cc1` (stereo not shown), -56.5%.
`COCc1c(C(=O)N2CCc3ccccc32)oc2ccccc12`: the “hERG current change (%, negative = inhibition) at 10uM” value is 7.3%.
Consider `COc1ccc(OC2C(=O)N(Cc3ccc4c(c3)OCO4)C2c2sccc2C)cc1` (stereo not shown), for which the “hERG current change (%, negative = inhibition) at 10uM” value was -5.31%.
With `CN1CC(c2ccccc2)C2(SC(=S)N(Cc3ccco3)C2=O)C12C(=O)Nc1ccccc12` (stereo not shown) the figure was 8.32%.
Turning to `O=C(NCC(=O)N(c1ccccc1F)C(C(=O)NC1CCCC1)c1cccnc1)c1ccco1` (stereo not shown), the “hERG current change (%, negative = inhibition) at 10uM” value was -0.398%.
For the compound `Cc1cc(C(=O)Nc2ccccc2Cl)c2ccccc2n1`, the “hERG current change (%, negative = inhibition) at 10uM” value was -2.16%.
With `Cn1cnnc1Sc1ccc(C(=O)NCCC(c2ccccc2)c2ccccc2)cc1[N+](=O)[O-]` the figure was -74.3%; with `O=C(c1ccco1)N1CCN(C(=O)C2CC(c3ccc(F)cc3)=NO2)CC1` (stereo not shown), -72.5%.
Consider `CC(C)CN(C(=O)CN1C(=O)NC2(CCc3ccccc32)C1=O)C1CCS(=O)(=O)C1` (stereo not shown), for which the “hERG current change (%, negative = inhibition) at 10uM” value worked out at 4.4%.
Take `COc1cc(C(=O)NCC(=O)N/N=C/c2ccc(OC(=O)c3ccco3)cc2)cc(OC)c1OC`: the “hERG current change (%, negative = inhibition) at 10uM” value is listed as -8.84%.
For the compound `COc1ccc2c(c1)C(=O)[C@@H](O)[C@H](c1ccc(OC)c(Br)c1)O2`, the “hERG current change (%, negative = inhibition) at 10uM” value is listed as 12.4%.
Regarding `Cc1cc(NC(=O)c2noc3c2CCCC3)no1`, the “hERG current change (%, negative = inhibition) at 10uM” value is recorded as -1.76%.
`COC(=O)c1ccccc1N/C=C/C(=O)c1ccc(Br)cc1`: the “hERG current change (%, negative = inhibition) at 10uM” value is reported as 16.1%.
In the case of `CC(C)c1nc2oc3c(NCc4ccccn4)ncnc3c2c2c1COC(C)(C)C2`, the “hERG current change (%, negative = inhibition) at 10uM” value is reported as 5.62%.
`COC(=O)[C@@H](N)CCCN=C(N)N[N+](=O)[O-].Cl`: the “hERG current change (%, negative = inhibition) at 10uM” value was 8.63%.
With `COc1cc2nc(SCc3ccc(C(F)(F)F)cc3)n(Cc3cccs3)c(=N)c2cc1OC`, the “hERG current change (%, negative = inhibition) at 10uM” value is listed as -1.47%.
On to `COc1ccc(C(=O)N/C(=C\c2cn(S(=O)(=O)N(C)C)c3ccccc23)C(=O)NCCCN2CCOCC2)cc1`, for which the “hERG current change (%, negative = inhibition) at 10uM” value is reported as -4%.
Take `Cc1ccc(C(=O)NCc2ccc(F)cc2)cc1NC1=NC2CS(=O)(=O)CC2S1` (stereo not shown): the “hERG current change (%, negative = inhibition) at 10uM” value came to 6.87%.
As for `O=C(NCCN1CCN(c2ccccc2F)CC1)C1CCCN(S(=O)(=O)c2cnc[nH]2)C1` (stereo not shown), the “hERG current change (%, negative = inhibition) at 10uM” value is reported as -3.59%.
With `CC1=C(C(=O)Nc2ccc([N+](=O)[O-])cc2)C(c2cccc(C(F)(F)F)c2)NC(=S)N1c1ccccc1` (stereo not shown), the “hERG current change (%, negative = inhibition) at 10uM” value was -1.13%.
Take `CCOc1ccc(Oc2c(C)oc3cc(O)ccc3c2=O)cc1`: the “hERG current change (%, negative = inhibition) at 10uM” value is on record as -4.02%.
With `CCCCn1nnnc1SCC(=O)Nc1ccc(C)cc1` the figure was 2.26%.
For `C=CCN=C1S/C(=C\c2ccc(N(C)C)cc2)C(=O)N1CC=C`, the “hERG current change (%, negative = inhibition) at 10uM” value is recorded as 16.7%.
On to `CC(OC(=O)CC1CCCC1)C(=O)Nc1ccc(Cl)cn1` (stereo not shown), for which the “hERG current change (%, negative = inhibition) at 10uM” value is -25%.
With `CC(C)(C)CN1CCNC(=O)C1CC(=O)N1CCN(c2ccccc2)CC1` (stereo not shown) the figure was 5.64%; with `Cc1ccc(Cc2nc(-c3ccncc3)no2)cc1`, -13.6%.
With `C=CCn1c(=NC(=O)CN2C(=O)CCC2=O)sc2cccc(OC)c21` the figure was -29.3%; with `Cc1ccsc1C(=O)NCCc1ccc(S(N)(=O)=O)cc1`, -2.68%; with `O=C(c1ccc2c(c1)N(Cc1ccccc1F)C(=O)c1ccccc1S2(=O)=O)N1CCCC1`, 1.89%.
Turning to `CN(CC(=O)Nc1cccc2ccccc12)c1ccc(S(=O)(=O)N2CCOCC2)cn1`, the “hERG current change (%, negative = inhibition) at 10uM” value is given as 11.8%.
`COc1cccc(C(=O)Nc2cccnc2)c1OC`: the “hERG current change (%, negative = inhibition) at 10uM” value was -0.88%.
For `Cc1ccc(CNC(=O)C2CCN(S(=O)(=O)N3CCOCC3)CC2)cc1`, the “hERG current change (%, negative = inhibition) at 10uM” value is -9.34%.
As for `CCCn1c(N)c(C(=O)COC(=O)CNC(=O)c2ccc(C)c(C)c2)c(=O)n(C)c1=O`, the “hERG current change (%, negative = inhibition) at 10uM” value is given as -78.1%.
As to `CCOC(=O)c1nn(-c2ccc(F)cc2)c2c1CC/C2=C/c1ccccc1`, the “hERG current change (%, negative = inhibition) at 10uM” value amounted to 8.7%.
Regarding `CCCc1cc(=O)[nH]c(SCC(=O)Nc2oc(C)c3c(C)n[nH]c(=O)c23)n1`, the “hERG current change (%, negative = inhibition) at 10uM” value is listed as 19.3%.
In the case of `Cc1cccc(-c2nc(-c3ccncc3)no2)c1`, the “hERG current change (%, negative = inhibition) at 10uM” value was 11.1%.
On to `Cc1cnc(C(=O)Nc2cccc(-c3nnc4n3CCCCC4)c2)cn1`, for which the “hERG current change (%, negative = inhibition) at 10uM” value is 2.61%.
With `CCOC(=O)c1oc2ccc(S(=O)(=O)n3nc(-c4ccccc4)cc3N)cc2c1C`, the “hERG current change (%, negative = inhibition) at 10uM” value amounted to 16%.
Turning to `C=CCn1c(Cc2cccs2)nnc1SCC(=O)NCc1ccco1`, the “hERG current change (%, negative = inhibition) at 10uM” value was -1.47%.
On to `O=C(NN=C1C2CC3CC(C2)CC1C3)c1cccs1`, for which the “hERG current change (%, negative = inhibition) at 10uM” value was 9.04%.
As for `COc1ccc(C2CC(=O)C(C=NCCO)=C(O)C2)cc1OC` (stereo not shown), the “hERG current change (%, negative = inhibition) at 10uM” value worked out at 4.15%.
For the compound `CCCN(C(=O)COc1ccc(C(C)=O)cc1OC)C1CCS(=O)(=O)C1` (stereo not shown), the “hERG current change (%, negative = inhibition) at 10uM” value is listed as 7.65%.
With `O=C(Cn1ccc(NC(=O)OCc2ccccc2)nc1=O)NCCCn1ccnc1` the figure was 6.72%; with `O=C(Cc1cccs1)N(c1ccc(Cl)cc1)C1C=CS(=O)(=O)C1` (stereo not shown), -0.945%.
As to `COc1ccc(Nc2nc(N)nc(CN3CCC(C)CC3)n2)cc1`, the “hERG current change (%, negative = inhibition) at 10uM” value is recorded as -75.4%.
